This is an account of results in the supplement of paper PMC12355420.

Structures can show the parent of a compound that is named as a salt. The list shows a part of the results. Single values are uncertain, as repeats are few or missing.
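Also: screen of an FDA-approved drug library, NanoLuc luminescence read after lysing the treated cells, taken as a measure of mutant VPS33A protein stability.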

The test system of the experiment is HeLa VPS33A KO + NLuc-VPS33A R498W. The experiment in a line: relative mutant VPS33A R498W amount (NanoLuc luminescence) vs DMSO (fraction of DMSO); HeLa model of a glycosaminoglycan (GAG) storage disease; KI is knock-in and KO knock-out; SDC1 is syndecan 1; higher = higher mutant VPS33A level. The following applies: 50 µM; 24 h.
As to `CNS(=O)(=O)Cc1ccc2[nH]cc(CCN(C)C)c2c1` [Sumatriptan Succinate], the “relative mutant VPS33A R498W amount” value amounted to 1.1.

As for `COc1nc(C)cnc1NS(=O)(=O)c1cccnc1-c1ccc(-c2nnco2)cc1` [Zibotentan (ZD4054)], the “relative mutant VPS33A R498W amount” value came to 1.51.

For the molecule `Cc1[nH]c(/C=C2\C(=O)Nc3ccccc32)c(C)c1CCC(=O)O` [TSU-68 (SU6668,Orantinib)], the “relative mutant VPS33A R498W amount” value was 0.602.

In the case of `COC(=O)[C@H](c1ccccc1Cl)N1CCc2sccc2C1` [Clopidogrel], the “relative mutant VPS33A R498W amount” value stood at 0.722.

Take `N[C@@H](CCC(=O)N[C@@H](CS)C(=O)NCC(=O)O)C(=O)O` [L-Glutathione Reduced]: the “relative mutant VPS33A R498W amount” value is 1.04.

Regarding `COc1ccc(/C=C\c2cc(OC)c(OC)c(OC)c2)cc1OP(=O)(O)O` [Fosbretabulin (Combretastatin A4 Phosphate (CA4P)) Disodium], the “relative mutant VPS33A R498W amount” value amounted to 0.612.

With `C=C1CC[C@H](O)C/C1=C/C=C1\CCC[C@]2(C)[C@@H]([C@H](C)/C=C/[C@H](C)C(C)C)CC[C@@H]12` [Vitamin D2 (Ergocalciferol)], the “relative mutant VPS33A R498W amount” value came out at 0.663.

In the case of `OC[C@@H](O)[C@@H](O)[C@H](O)[C@H](O)CO` [D-Mannitol], the “relative mutant VPS33A R498W amount” value was determined as 1.44.

Consider `Cc1ccc(C(C)C)c(O)c1` [Thymol], for which the “relative mutant VPS33A R498W amount” value was 1.36.

In the case of `COc1ccc([C@@H]2Sc3ccccc3N(CCN(C)C)C(=O)[C@@H]2OC(C)=O)cc1` [Diltiazem HCl], the “relative mutant VPS33A R498W amount” value was 0.742.

Regarding `COCCCOc1ccnc(C[S+]([O-])c2nc3ccccc3[nH]2)c1C` (configuration not stated) [Rabeprazole], the “relative mutant VPS33A R498W amount” value stood at 1.07.

As for `COC(=O)Nc1nc2cc(C(=O)c3ccccc3)ccc2[nH]1` [Mebendazole], the “relative mutant VPS33A R498W amount” value stood at 0.477.

Regarding `COc1c(O)cc2c(c1O)[C@@H]1O[C@H](CO)[C@@H](O)[C@H](O)[C@H]1OC2=O` [Bergenin], the “relative mutant VPS33A R498W amount” value is 1.18.

As for `Cc1nc2c([nH]1)-c1ccccc1N(C(=O)c1ccc(NC(=O)c3ccccc3-c3ccccc3)cc1)CC2` [Conivaptan HCl], the “relative mutant VPS33A R498W amount” value worked out at 0.631.

For `O=C(NCC1CCCCN1)c1cc(OCC(F)(F)F)ccc1OCC(F)(F)F` (configuration not stated) [Flecainide acetate], the “relative mutant VPS33A R498W amount” value came to 0.783.

Turning to `CNC(=C[N+](=O)[O-])NCCSCc1csc(CN(C)C)n1` [Nizatidine], the “relative mutant VPS33A R498W amount” value is 1.5.

Regarding `NCCCC(O)(P(=O)(O)O)P(=O)(O)O` [Alendronate sodium], the “relative mutant VPS33A R498W amount” value is 0.891.

`Cc1[nH]c(=O)c(C#N)cc1-c1ccc2nccn2c1` [Olprinone Hydrochloride]: the “relative mutant VPS33A R498W amount” value was 1.46.

`COc1cc(C2Oc3cc([C@H]4Oc5cc(O)cc(O)c5C(=O)[C@@H]4O)ccc3OC2CO)ccc1O` (some centres not stated) [Silymarin]: the “relative mutant VPS33A R498W amount” value was found to be 0.573.

On to `O=C1CCc2ccc(OCCCCN3CCN(c4cccc(Cl)c4Cl)CC3)cc2N1` [Aripiprazole], for which the “relative mutant VPS33A R498W amount” value is 0.567.

Turning to `COc1cc2nccc(Oc3ccc(NC(=O)C4(C(=O)Nc5ccc(F)cc5)CC4)cc3)c2cc1OC` [Cabozantinib malate (XL184)], the “relative mutant VPS33A R498W amount” value was determined as 0.341.

Take `Cc1cccc(C)c1NC(=O)C1CCCCN1C` (configuration not stated) [Mepivacaine HCl]: the “relative mutant VPS33A R498W amount” value was determined as 0.934.

As for `O=C(NC[C@H](O)CO)c1ccncc1Nc1ccc(I)cc1F`, the “relative mutant VPS33A R498W amount” value worked out at 0.678.

In the case of `CCCCCCOC(=O)NC(=N)c1ccc(NCc2nc3cc(C(=O)N(CCC(=O)OCC)c4ccccn4)ccc3n2C)cc1`, the “relative mutant VPS33A R498W amount” value was 0.15.

Turning to `CCCOC(=O)c1ccc(O)cc1` [Propylparaben], the “relative mutant VPS33A R498W amount” value amounted to 0.891.

For `CC(C)c1nc(N(C)S(C)(=O)=O)nc(-c2ccc(F)cc2)c1/C=C/[C@@H](O)C[C@@H](O)CC(=O)O` [Rosuvastatin Calcium], the “relative mutant VPS33A R498W amount” value came to 2.38.

Consider `C[C@]12CCC(=O)C=C1CC[C@@H]1[C@@H]2[C@@H](O)C[C@@]2(C)[C@H]1CC[C@]2(O)C(=O)CO` [Hydrocortisone], for which the “relative mutant VPS33A R498W amount” value amounted to 0.825.
